Experimental data published in PubChem BioAssay AID485344 (National Center for Advancing Translational Sciences (NCATS), 2010).
The campaign covered roughly 340,000 compounds. About 6,900 (2%) were called active. Rule as the data show it: active = inhibition above about 30%; inactive = below that, where a call was filed. The entries are a selection whose mix differs from that of the whole data set. Where no call is shown, the source filed none.

Biological target: D(2) dopamine receptor (Homo sapiens) (UniProt P14416)
Assay: HTS Assay for Allosteric Antagonists of the Human D2 Dopamine Receptor: Primary Screen for Antagonists; also: 0% is about no effect
Conditions: HEK293 TREx D2 cells, calcium flux, dopamine EC80; at 10 µM; stronger effect = higher value
How it was run: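 Measurement of antagonist activity uses fluorescent calcium dye in inducible HEK293 T-REx D2 cells: 10 s baseline, compound addition with 180 s read, EC80 dopamine addition with a further 180 s read.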

Sequence of UniProt P14416 (P14416 whole entry, looked up): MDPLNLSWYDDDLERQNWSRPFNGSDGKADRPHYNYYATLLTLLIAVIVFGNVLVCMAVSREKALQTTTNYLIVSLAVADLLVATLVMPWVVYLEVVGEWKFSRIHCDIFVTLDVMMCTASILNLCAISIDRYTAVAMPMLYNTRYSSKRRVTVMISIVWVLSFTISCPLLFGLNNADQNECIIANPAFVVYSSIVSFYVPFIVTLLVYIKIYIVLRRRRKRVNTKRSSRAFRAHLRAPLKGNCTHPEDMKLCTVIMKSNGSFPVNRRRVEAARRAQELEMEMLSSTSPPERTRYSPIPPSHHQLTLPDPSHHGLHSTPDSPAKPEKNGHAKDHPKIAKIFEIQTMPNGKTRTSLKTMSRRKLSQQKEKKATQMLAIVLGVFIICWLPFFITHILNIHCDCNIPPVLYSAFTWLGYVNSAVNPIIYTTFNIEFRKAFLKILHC

SMILES	inhibition
COc1cccc(-n2c(=O)c3sccc3n(CC(=O)NC3CCCCC3)c2=O)c1	active: 30.5%
CCOC(=O)c1cnc2nc(NCc3cccc(Br)c3)[nH]n2c1=O	-7.39%
CCOC(=O)c1ccc(NC(=O)CN2CCN(C(=O)c3ccco3)CC2)cc1	active: 67.4%
COc1ccccc1CNS(=O)(=O)c1ccc(-c2cnc(C3CC3)o2)cc1	14.8%
COCCNC(=O)c1c[nH]c2ccc(S(=O)(=O)Nc3ccc(F)cc3F)cc2c1=O	11.2%
CCc1ccc(C2=NN(CCC(=O)NCCc3ccc(OC)c(OC)c3)C(=O)CC2)cc1	4.3%
CCCOc1ccc(-c2nonc2NC(=O)c2cc(OC)c(OC)c(OC)c2)cc1OCCC	-6.84%
CC(C)c1nn2c(=O)cc(COC(=O)c3cccc(NC(=O)c4cccs4)c3)nc2s1	7.14%
Cc1ccc(N2CC(NC(=O)c3cc4ccccc4o3)CC2=O)cc1C (configuration not stated)	4.11%
CCc1ccccc1NC(=O)CCOc1ccccc1	-1.54%
COc1cc(C2c3c(oc4ccccc4c3=O)C(=O)N2c2ccccn2)cc(OC)c1OC (configuration not stated)	-6.01%
COC(=O)[C@@H]1[C@H]2C[C@H]3c4[nH]c5ccccc5c4CCN3C[C@@H]2CC[C@@H]1O	active: 58.1%
CCCc1nn2c(=O)cc(COC(=O)c3ccccc3NC(=O)c3cccs3)nc2s1	8.41%
COc1ccc(N(Cc2cccs2)C(=O)c2ccc(OCC(C)C)cc2)cc1	3.35%
Cc1ccc(C)c(C(=O)c2c(N)c(-c3nc(-c4ccc5c(c4)OCO5)cs3)c3ccccn23)c1	-1.38%
Cc1cccc(NC(=O)C2CCC(CNS(=O)(=O)c3ccc(Br)s3)CC2)c1 (configuration not stated)	26%
COc1cccc(C2CC(=O)N(c3ccc(F)cc3)C3=C2C(=O)OC3)c1OC (configuration not stated)	-7.53%
Cc1ccc(OCC(=O)Nc2ccc(Cl)c(-c3nc4ncccc4o3)c2)c(C)c1	1.77%
Cc1cn2c(=O)cc(COc3ccc(Cl)cc3)nc2s1	-16.4%
COc1cc(NC(=O)Nc2cccc(-c3noc(C)n3)c2)cc(OC)c1OC	23.3%
CCOc1ccc(-n2c(=O)c3c(C)c(C)sc3n(CC(=O)N(CC)Cc3ccccc3)c2=O)cc1	-3.26%
Cc1ccc(Cl)cc1NC(=O)Cc1ccc(-n2c(C)nc3cccnc32)cc1	9.98%
CCOc1ccc(CNc2nc3nc(C)c(Cc4ccccc4)c(=O)n3[nH]2)cc1	-1.44%
COc1ccc2c(c1)CC(C(=O)Nc1cc(Cl)ccc1C)CO2 (configuration not stated)	0.972%
CCc1ccc(CNC(=O)C2Cc3cc(S(=O)(=O)N4CCCCCC4)ccc3N2C(C)=O)cc1 (configuration not stated)	-13.4%
COc1cccc(Nc2cc(C)nc3nc(-c4ccc(Cl)cc4)nn23)c1	-4.67%
N#Cc1c(N)n(-c2cccc(Cl)c2)c2nc3ccccc3nc12	-3.1%
